Data published in PubChem BioAssay AID493208 (National Center for Advancing Translational Sciences (NCATS), 2011).
Out of some 44,000 compounds screened, about 340 (0.77%) were called active. Not shown: some 5% with an inconclusive outcome. Calls follow the shape of the dose curve; as a rule, active = well fitted inhibition curve with a large enough effect; inconclusive = small, poorly fitted or top-dose-only effect; inactive = flat fitted curve, though single readings scatter. The list shows a part of the results.

experiment: Acumen qHTS Assay for Inhibitors of the mTORC1 Signaling Pathway in MEF (Tsc2-/-, p53-/-) Cells: Sytravon; settings: phospho-rpS6 immunofluorescence/PI, 24 h; series mostly up to 38.3 µM; activity change, negative = inhibition: at the top concentration;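 also: plate controls were DMSO for no effect and rapamycin for full effect; nearly all actives have a fitted effect of over 50% in size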
Summary of the method: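 Tsc2-/-, p53-/- MEFs (empty-vector stable line) in DMEM + 10% FBS were treated with compounds 24 h at 37 degree Celsius, fixed, and immunostained for phospho-rpS6 (Alexa-488) with propidium iodide counterstain. Laser-scanning cytometry gave % positive cells, normalized against 7.5 nM rapamycin and DMSO.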

Activity change, negative = inhibition, inactive:
Cc1ccc2oc(C(=O)Nc3sc4c(c3C(=O)NCc3ccco3)CCC4)cc(=O)c2c1 4.55%
Cn1c(C(=O)NCc2cccc(Cl)c2)cc2oc3ccccc3c21 -8.48%
CC(=O)c1ccc(N2CCN(C(=O)CCCn3c(=O)[nH]c4ccsc4c3=O)CC2)cc1 2.91%
COCCCNC(=O)c1ccc(Cn2c(=O)c3cccn3c3cccnc32)cc1 -5.23%
COc1ccc(C(CC(=O)Nc2ccc(Br)cn2)N2Cc3ccccc3C2=O)cc1 (stereo not given) -12%
Cc1nn(CC(=O)NCc2ccc(N(C)C)cc2)c(=O)c2nn(-c3ccccc3)c(C)c12 -0.0063%
COc1ccccc1CCNC(=O)C1CCN(c2nnc(C)c3c(C)n(-c4ccc(C)cc4)nc23)CC1 -9.17%
Cc1ccc(Cn2c(CN3CCN(c4cccc(Cl)c4)CC3)nc3c2c(=O)n(C)c(=O)n3C)cc1 -0.505%
O=[N+]([O-])c1ccc(O)c(-c2ccnc3cc(-c4ccccc4)nn23)c1 5.7%
Cc1ccc2c(=O)cc(C(=O)Nc3c(C(=O)c4ccc(F)cc4)oc4ccccc34)oc2c1C 2.52%
CSc1nn(CC(=O)Nc2cc(C)ccc2C)c(N)c1S(=O)(=O)c1ccccc1 9.41%
O=C(Nc1nnc(S(=O)(=O)N2CCCCCC2)s1)c1ccc(Cl)cc1 11.2%
COc1ccc(NC(=O)CC(C)S(=O)(=O)c2cc3c(cc2C)NC(=O)CO3)cc1OC (stereo not given) 4.08%
CC(C)CC(=O)OCc1cc(=O)n2nc(C3CCCCC3)sc2n1 6.94%
COc1ccccc1CNC(=O)C1CCN(c2nnc(C)c3c(C)n(-c4ccccc4)nc23)CC1 4.85%
Cc1ccc(NC(=O)CN2C(=O)CC(c3ccc(C)c(C)c3)=Nc3ccccc32)cc1 3.29%
CCOC(=O)Cn1c(=O)oc2cc(S(=O)(=O)N3CCN(c4ccc(F)cc4)CC3)ccc21 -10.9%
Cc1cccc(C)c1OC(=O)CSc1nnc(-c2ccc3c(c2)OCO3)o1 -0.0783%
COc1ccc(CCNC(=O)c2c(C)oc3ncn(CC(C)C)c(=O)c23)c(OC)c1 1.97%
COC(=O)c1c(C)sc(-c2c(-c3ccc(OC)c(F)c3)[nH]c3c2c(=O)n(C)c(=O)n3C)c1O 0.0403%
CC(C)C(=O)Nc1nnc(S(=O)(=O)N2c3ccccc3CC2C)s1 (stereo not given) 0%
Cc1ccc(C(C)C)c(OCC(=O)Nc2ccc(O)c(-c3nc4cc(Cl)ccc4o3)c2)c1 3.24%
CCOC(=O)c1c(-c2ccccc2)oc2ccc(OCc3cccc(Br)c3)cc12 -4.13%
CCN1C(=O)c2ccccc2S(=O)c2ccc(C(=O)NCc3ccc(Cl)cc3)cc21 (stereo not given) -17.2%
CCN(c1cccc(C)c1)S(=O)(=O)c1c(C)nc2sc(C)cn2c1=O -0.737%
